About 5,000 (1.2%) of roughly 410,000 compounds were called active. This list was built around the results that the source calls inconclusive (neither active nor inactive); the mix of calls is not that of the screen. The call rests on the fitted dose curve; in most records, active means well fitted inhibition curve with a large enough effect; inconclusive means small, poorly fitted or top-dose-only effect; inactive means no such curve, though single readings can be large or run the other way. A potency beside an inconclusive call is a rough fit, not a confirmed value. A structure can be active in one record and inactive in another.
test: qHTS for Inhibitors of TGF-b; details: HepG2 CAGA-GFP TGF-b/SMAD3 reporter, GFP fluorescence, 18 h, TGF-beta stimulated, 500 pg/mL final; series mostly up to 46.1 µM; further: nearly all actives have a fitted effect of over 65% in size
In short: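 Smad-responsive CAGA-GFP expression was quantified in HEPG2 cells exposed to compounds and 500 pg/mL final TGF-beta for 18 h at 37 degrees C; unstimulated wells defined full inhibition.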
Potency means the concentration at half of the fitted maximal effect; tags describe the fitted curve by direction and shape.

Row | Structure (SMILES) | Potency
1 | O=C(Nc1cc(-c2nc3ccccc3o2)ccc1Cl)c1sc2c([N+](=O)[O-])cccc2c1Cl | inactive
2 | CCCCCc1ccc(-c2cn(CCc3c[nH]c4ccccc34)nn2)cc1 | inconclusive: 35.5 µM [inhibitor, single point]
3 | O=C(C=C=Nc1ccccc1)C(=O)N=C=Cc1ccccc1 | inconclusive: 14.1 µM [inhibitor, partial curve, poor fit]
4 | CCOc1ccc(CN2CCc3nc(N4CCN(c5ccccc5OC)CC4)ncc3C2)cc1OC | inconclusive: 11.2 µM [inhibitor, partial curve, poor fit]
5 | O=C(NCc1cc(C(F)(F)F)cc(C(F)(F)F)c1)c1cc(-c2cc(F)ccc2OCC2CCCO2)n[nH]1 (stereo not drawn) | inactive
6 | CCn1c2ccccc2c2cc(NC(=O)COc3ccccc3OC)ccc21 | inactive
7 | O=C(NCc1cccnc1)C(=O)NCC(c1ccco1)N1CCN(c2ccc(F)cc2)CC1 (stereo not drawn) | inactive
8 | Cn1nc(C(=O)N2CCCC2)c2ccccc2c1=O | inconclusive: 0.708 µM [inhibitor, full curve, poor fit]
9 | CCOc1nnc(C)c2c(C)n(-c3ccc(Cl)cc3)nc12 | inconclusive: 22.4 µM [inhibitor, single point]
10 | O=C1S/C(=C\c2ccccc2)C(=O)N1CC(O)Cn1c2ccccc2c2ccccc21 (stereo not drawn) | inconclusive: 35.5 µM [inhibitor, single point]
11 | COC(CNC(=O)c1ccc2c(c1)ncn2C1CCCCCC1)OC | inactive
12 | CC1(C)Cc2c(c(-c3ccco3)nc3sc4c(NCCO)ncnc4c23)CO1 | inactive
13 | CC1CCN(C(=O)c2ccc([N+](=O)[O-])o2)CC1 | inactive
14 | CC(C)(C)c1nnc(NC(=O)C2CCN(c3ncccn3)CC2)s1 | inactive
15 | CCOC(=O)c1cc2[nH]c3ccccc3c2[n+](-c2ccc([N+](=O)[O-])cc2)c1N | inconclusive: 25.1 µM [inhibitor, single point]
16 | Fc1ccccc1Cc1cn2cc(-c3ccc(Cl)cc3)nc2s1 | inconclusive: 4.47 µM [inhibitor, single point]
17 | Clc1ccc(CSc2nnnn2-c2ccc3c(c2)OCO3)c(Cl)c1 | inactive
18 | O=c1c2ccccc2sn1-c1cc(S(=O)(=O)N2CCOCC2)ccc1N1CCOCC1 | active: 11.2 µM
19 | COc1ccccc1Cn1c(CNS(=O)(=O)c2ccc(C(C)C)cc2)nc2cccnc21 | inconclusive: 17.8 µM [inhibitor, partial curve, poor fit]
20 | CSc1cccc(NC(=S)N(CCC(C)C)C2CCN(C(C)C)CC2)c1 | inconclusive: 11.2 µM [inhibitor, partial curve]
21 | COc1ccc(CNC(=O)c2nc(SCc3ccccc3F)ncc2Cl)cc1 | inconclusive: 6.31 µM [inhibitor, partial curve, poor fit]
22 | CC1(C(=O)NS(=O)(=O)c2ccc(Cl)cc2)CCN1C(=O)C/C=C/c1ccccc1 (stereo not drawn) | inactive

Row | Structure (SMILES) | Potency
23 | CC1CCN(C(=O)c2[nH]cnc2C(=O)NCc2ccccc2)CC1 | inconclusive: 3.16 µM [inhibitor, full curve]
24 | COc1ccc(CN2CCC2(C)C(=O)Nc2cccc(NS(C)(=O)=O)c2)c2ccccc12 (stereo not drawn) | inconclusive: 14.1 µM [inhibitor, partial curve]
25 | Cc1coc(C)c1C(=O)CC1(O)C(=O)N(Cc2ccccc2)c2ccccc21 (stereo not drawn) | inconclusive: 15.8 µM [inhibitor, single point]
26 | COc1ccc2c(c1)C(=O)[C@@H](O)[C@H](c1ccc(OC)c(Br)c1)O2 | inconclusive: 8.91 µM [inhibitor, partial curve]
27 | CC1(C)C(N(O)C(=O)Nc2ccccc2)N(c2cccc(Cl)c2)C(=O)N1O (stereo not drawn) | inactive
28 | Cc1cc(C)cc(C(=O)OCC(=O)NC(=O)NC2CCCC2)c1 | inconclusive: 14.1 µM [inhibitor, single point]
29 | COc1cccc(CNC(=O)Cn2ncn3nc(-c4cccs4)cc3c2=O)c1OC | inactive
30 | Cc1ccc(N2CC(O)CSC2=Nc2ccccc2)cc1 (stereo not drawn) | inconclusive: 5.62 µM [inhibitor, single point]
31 | NC1=NC[C@@H](CC2CCCCC2)N1CCc1cc(C(F)(F)F)cc(C(F)(F)F)c1 | inconclusive: 7.08 µM [inhibitor, partial curve, poor fit]
32 | CS(=O)(=O)N1c2ccccc2[C@]2(Br)C[C@H]3C(=O)N[C@@H](Cc4ccccc4)C(=O)N3[C@H]12 | inconclusive: 35.5 µM [inhibitor, single point]
33 | Cc1ccccc1N1C(=O)c2ccccc2C1Nc1cccnc1 (stereo not drawn) | inconclusive: 11.2 µM [inhibitor, single point]
34 | O=C(CCCl)Nc1nnc(SCC(=O)NC2CCCC2)s1 | inconclusive: 35.5 µM [inhibitor, single point]
35 | Cc1ccc2onc(CC(=O)N3CCN(c4cc(Cl)ccc4C)CC3)c2c1 | inconclusive: 35.5 µM [inhibitor, single point]
36 | COc1ccc(S(=O)(=O)N2CCC(C(=O)NCCC3=CCCCC3)CC2)cc1OC | inconclusive: 5.62 µM [inhibitor, single point]
37 | O=C(Cc1ccccc1)NC(=S)Nc1cc(C(F)(F)F)ccc1Cl | inconclusive: 35.5 µM [inhibitor, single point]
38 | Cc1cc(-c2ccc(C)c(S(=O)(=O)NCc3cccc(Br)c3)c2)on1 | inconclusive: 35.5 µM [inhibitor, single point]
39 | Cc1cc(C)cc(OCC(=O)N(Cc2cccs2)c2ccc(Cl)cc2)c1 | inconclusive: 15.8 µM [inhibitor, partial curve, poor fit]
40 | Cc1cccc(-n2c(SCC(=O)NCC3CCCO3)nc3ccccc3c2=O)c1C (stereo not drawn) | inactive
41 | CCOCCCNC(=O)c1cnc2sc(N3CCCCC3)nn2c1=O | inactive
42 | COc1ccc(CNC(=O)C2CCC(CNS(=O)(=O)c3cccc4cccnc34)CC2)cc1 (stereo not drawn) | inconclusive: 4.47 µM [inhibitor, full curve, poor fit]
43 | O=C(/C=C/c1ccccc1)c1ccccc1 | inconclusive: 35.5 µM [inhibitor, single point]
